We go through 61 sequences from the supplement of paper PMC3724861.

The other results are listed elsewhere or left out. Some results are limits rather than exact numbers.

For this assay, the system named is T1, Caupolican (Caup) homeodomain DNA-binding domain.
T1 sequence: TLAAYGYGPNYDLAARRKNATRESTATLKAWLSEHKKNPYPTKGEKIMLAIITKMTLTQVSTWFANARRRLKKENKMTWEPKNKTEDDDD
As to the kind of experiment: PBM E-score (8-mer, recovered from the published 9-mer minima) (E-score (dimensionless, -0.5 to 0.5)); Drosophila protein; higher = stronger relative binding preference, active = 0.31 or more. In short, it runs like this:
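Caup's homeodomain DNA-binding domain (residues 214-303) was produced by in vitro transcription and translation and applied at 100 nM to custom-designed protein binding microarrays. Each value is an enrichment score giving relative binding preference for a short DNA word; higher means stronger. Published 9-mer scores were the minimum of their two constituent 8-mer scores, and the 8-mer values were recovered from those minima. A cutoff of 0.31 marks candidate binding sequences.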
For the sequence CGAAATGA, the “PBM E-score” value was inactive: 0.046.

On to CCGGGAGG, for which the “PBM E-score” value was inactive: -0.219.

For the sequence AGACAGAA, the “PBM E-score” value was inactive: 0.0455.

For the sequence CTGTTGGA, the “PBM E-score” value is inactive: 0.0269.

For the sequence GATATGGC, the “PBM E-score” value is inactive: -0.0691.

On to ATTTCATG, for which the “PBM E-score” value was inactive: 0.114.

AGCGGGAT: the “PBM E-score” value was inactive: -0.131.

On to ATATCGCA, for which the “PBM E-score” value was inactive: 0.0425.

With AAGGACCA, the “PBM E-score” value was inactive: -0.113.

On to ACTCTGGC, for which the “PBM E-score” value was inactive: -0.189.

As to AATATTAC, the “PBM E-score” value is inactive: 0.288.

Turning to ATAAAATG, the “PBM E-score” value is inactive: 0.179.

For the sequence CGTGGTCA, the “PBM E-score” value was inactive: 0.0012.

As to GAACCGAC, the “PBM E-score” value was inactive: -0.072.

Turning to CGGATAAC, the “PBM E-score” value is inactive: 0.044.

Take CAGTATCC: the “PBM E-score” value was inactive: 0.0462.

As for CTCCCTAC, the “PBM E-score” value is inactive: -0.049.

In the case of GGGCGCAC, the “PBM E-score” value is inactive: -0.277.

With ACTTCGAA, the “PBM E-score” value is inactive: -0.0186.

As for ATTGACGC, the “PBM E-score” value is inactive: 0.00131.

Turning to AGAGTCAT, the “PBM E-score” value is inactive: 0.031.

With AGCGTCAA, the “PBM E-score” value was inactive: -0.0071.

Consider GCGCGTTA, for which the “PBM E-score” value was inactive: -0.0378.

Regarding ATCATCGG, the “PBM E-score” value is inactive: -0.0315.

Consider ATAACAAT, for which the “PBM E-score” value is inactive: 0.254.

With TAAGGGGA, the “PBM E-score” value was inactive: -0.0541.

ACCCCCAC: the “PBM E-score” value was inactive: -0.29.

For the sequence ATAAAGAC, the “PBM E-score” value is inactive: 0.0582.

As for ATTAAAAG, the “PBM E-score” value is inactive: 0.0735.

Take AAGCGAGT: the “PBM E-score” value is at least 0.0125.

For the sequence ACTTATAG, the “PBM E-score” value was inactive: -0.0185.

Consider GTCGCGTA, for which the “PBM E-score” value is inactive: 0.0689.

AAACGCGA: the “PBM E-score” value is inactive: 0.0379.

ATCGCCAT: the “PBM E-score” value is inactive: -0.0401.

For the sequence ATCCGCTC, the “PBM E-score” value was inactive: -0.121.

In the case of CGAAGTAC, the “PBM E-score” value is inactive: 0.155.

For AGTGATAT, the “PBM E-score” value was inactive: 0.0873.

As for CATCGGCA, the “PBM E-score” value was inactive: -0.0473.

Regarding CATCTTGG, the “PBM E-score” value was inactive: 0.0046.

On to TGAGAACA, for which the “PBM E-score” value was inactive: 0.246.

Turning to GAAGGGGC, the “PBM E-score” value was inactive: -0.165.

Turning to CGAGAATA, the “PBM E-score” value is inactive: 0.0481.

With ACACACAC, the “PBM E-score” value is inactive: 0.242.

For GGATTACA, the “PBM E-score” value was inactive: 0.276.

Turning to GCAGTACA, the “PBM E-score” value was inactive: 0.196.

Consider TACTTGAA, for which the “PBM E-score” value was at least 0.223.

For AGGGCGGG, the “PBM E-score” value is inactive: -0.169.

Regarding AGACCAAT, the “PBM E-score” value was inactive: 0.0512.

ATATGTTG: the “PBM E-score” value was active: 0.324.

As to AGCGTACT, the “PBM E-score” value was inactive: 0.0252.

On to AAGGCCAG, for which the “PBM E-score” value was inactive: -0.185.

In the case of CTACCAAG, the “PBM E-score” value is inactive: 0.0145.

On to CAACGAAG, for which the “PBM E-score” value is inactive: 0.0213.

With CCCCAAAG, the “PBM E-score” value is inactive: -0.329.

Take GGAAATCA: the “PBM E-score” value was inactive: 0.0249.

Regarding GTCGAGAA, the “PBM E-score” value is inactive: 0.0141.

Consider AGGTGCAA, for which the “PBM E-score” value is inactive: -0.076.

Turning to GTGAAGAA, the “PBM E-score” value was inactive: -0.0329.

Regarding ATATCTCC, the “PBM E-score” value is inactive: -0.0278.

For the sequence ATGGACAG, the “PBM E-score” value is inactive: 0.114.

For AAATCGCT, the “PBM E-score” value was inactive: -0.0232.
